# The other results are listed elsewhere or left out. The full chains were built here from the parent and the listed change. Inactive controls read about 0.05.
# B1: TEV protease; numbered along this chain (parent)
# chain: MGESLFKGPRDYNPISSSICHLTNESDGHTTSLYGIGFGPFIITNKHLFRRNNGTLVVQSLHGVFKVKDTTTLQQHLVDGRDMIIIRMPKDFPPFPQKLKFREPQREERICLVTTNFQTKSMSSMVSDTSCTFPSGDGIFWKHWIQTKDGQCGSPLVSTRDGFIVGIHSASNFTNTNNYFTSVPKNFMELLTNQEAQQWVSGWRLNADSVLWGGHKVFMVKPEEPFQPVKEATQL
# Variants of: B1
# Experiment: raw area under fraction-flipped curve 0-4 h after induction (AUC4h, not background-subtracted), DNA-recorder readout of cleavage of the substrate (dimensionless); higher = more cleavage of the substrate by the protease variant
# Conditions: temperature: 34 °C; time window: 0-4 h after rhamnose induction
# 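Further: Bxb1 expression induced with 0.2% (w/v) L-rhamnose at OD600 near 0.5, cultures sampled hourly, flipped fraction per protease–substrate barcode pair counted by paired-end Illumina sequencing.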
Variant,area with substrate ENLYFCS,area with substrate ENLYFDS,area with substrate ENLYFES,area with substrate ENLYFFS,area with substrate ENLYFIS,area with substrate ENLYFKS,area with substrate ENLYFLS,area with substrate ENLYFMS,area with substrate ENLYFNS,area with substrate ENLYFPS,area with substrate ENLYFRS,area with substrate ENLYFSS,area with substrate ENLYFTS,area with substrate ENLYFVS,area with substrate ENLYFWS,area with substrate ENLYFYS,area with substrate ENLYFHS,area with substrate ENLYFGS
M219Q,0.06,0.0864,0.0664,0.0614,0.0504,0.0619,0.0546,0.0604,0.0515,0.0645,0.0562,0.0565,0.0686,0.049,0.0532,0.0498,–,–
Q197C,0.0529,–,0.0647,0.067,0.0702,–,0.0487,0.0669,0.0589,–,0.0519,0.0604,0.0588,–,0.0597,–,–,–
V229H,0.0666,0.0722,0.0726,0.0663,0.0677,0.0385,–,0.0755,–,0.0747,0.0523,–,–,–,0.0617,0.0398,0.0875,–
T72P,–,0.0544,0.0371,0.0661,0.057,0.0571,0.0695,–,0.0584,–,0.0678,–,–,0.0065,0.0549,0.0285,–,–
S135I,–,0.059,0.0605,0.0674,0.0545,0.0483,0.0624,0.0629,–,0.0596,–,0.0612,–,–,0.0771,0.0624,0.0494,–
S135D,–,0.0505,–,0.0759,0.0484,–,0.0685,–,0.0706,0.0558,0.0603,0.0585,0.0593,–,0.0574,0.0454,0.0642,0.0463
T181G,0.0429,0.0434,0.0683,0.0649,0.0496,–,–,0.0426,0.0775,0.0573,0.058,0.0773,–,–,0.0565,0.0386,0.0571,–
N177V,0.0697,0.0519,–,0.0627,0.049,–,–,0.0683,0.0699,0.0609,0.0607,0.0599,–,–,0.0658,0.0722,–,0.0587
P222M,–,0.0512,0.0504,0.0578,0.0449,0.0603,–,0.056,–,–,–,0.0609,0.0587,–,0.0342,0.0579,0.0557,–
P222G,–,0.0495,0.0623,0.0703,0.0778,0.0634,0.0637,–,0.0652,0.0579,–,–,–,0.0836,0.0547,0.0593,–,–
A232P,0.0601,0.0548,0.0776,–,0.0542,0.0687,–,0.0745,0.0695,–,–,0.0709,–,–,–,0.0589,0.0598,–
G28H,–,0.0446,0.0665,0.0118,0.0645,0.0741,0.0544,–,0.057,0.0612,0.0649,0.0675,–,0.0471,0.0614,0.0505,–,0.0578
S169A,0.0554,–,0.0639,–,0.0518,0.0527,0.0473,0.0637,–,0.0965,–,–,0.0631,0.0466,0.0356,–,0.0494,–
T147Y,0.0719,–,0.0614,0.0673,0.0468,–,0.0596,0.0532,0.0345,0.0551,–,0.0661,0.0607,0.0638,–,–,–,0.0702
G214V,0.0825,0.0513,0.0505,–,0.0562,–,–,0.0558,0.0516,0.0763,0.0625,0.0436,0.049,0.0696,0.0521,0.0519,0.0564,–
W144T,0.0585,–,–,0.0693,0.0763,0.0566,–,–,0.0727,–,0.058,–,0.0601,–,0.0924,–,0.0581,0.0463
F117M,–,0.0561,–,–,–,0.0614,–,–,–,–,0.0446,0.0807,0.0324,–,0.0358,0.0382,0.0417,–
Y34C,–,0.0445,–,0.0553,0.0514,–,0.0546,0.0658,0.0644,0.069,–,0.0723,0.0564,0.0898,0.0685,0.052,0.0516,0.0541
G202N,0.0499,–,–,0.0761,0.0541,0.0632,–,0.0739,–,0.0614,–,0.0647,0.0632,0.0705,0.0626,0.0579,–,–
Q198V,0.0632,–,–,0.0588,0.0566,0.0856,0.049,0.0622,0.074,0.0551,0.0604,–,0.06,–,0.0723,–,–,–
P228N,0.0621,–,0.0684,0.0758,0.0639,0.0549,0.064,0.0682,0.0675,0.0565,–,0.053,0.0635,–,0.0698,0.0574,–,–
M122Y,0.0606,–,0.0612,0.0726,0.0527,0.0581,0.0767,0.0674,–,0.0653,0.07,0.0516,0.0585,0.0701,0.0574,0.0642,0.0595,–
M122K,0.069,–,0.0654,0.0658,0.0595,–,–,0.081,–,0.0549,–,–,0.059,0.0563,0.0559,–,0.0514,–
H47A,–,0.0166,–,0.0747,0.0478,–,–,0.0658,0.0652,0.0642,–,–,0.0679,–,–,–,–,–
M188C,–,0.0573,0.0628,0.0569,0.0671,–,–,0.0655,0.0652,0.0691,0.0732,0.0675,0.073,–,0.0604,–,–,–
T159Y,0.0721,0.0567,0.0721,0.0462,0.0646,–,0.0534,0.0652,–,0.0589,0.0616,0.063,–,–,0.0562,0.0795,0.0651,0.0865
L205N,0.0074,–,0.0539,–,0.0614,0.0592,–,0.0748,–,0.0579,0.0497,–,0.0554,0.056,0.0747,0.0639,–,–
V210K,–,0.0552,0.0594,0.055,0.057,–,–,–,–,0.0611,0.0588,0.0558,0.0611,0.0584,0.0544,0.064,–,–
E195C,0.0576,0.0619,0.0679,0.0673,0.0562,0.0585,–,0.0727,0.0671,0.042,0.0629,–,0.0714,–,0.0836,–,–,0.0695
